# Reference: PubChem BioAssay AID1476 (National Center for Advancing Translational Sciences (NCATS), 2009)
# Screen size: about 200,000 compounds; about 4,500 (2.2%) were called active. Inconclusive means that the source gave no clear call. Such entries were picked first, then a sample of the others. Calls follow the shape of the dose curve; as a rule, active = well fitted inhibition curve with a large enough effect; inconclusive = small, poorly fitted or top-dose-only effect, or effect the other way; inactive = flat fitted curve, though single readings scatter. A potency beside an inconclusive call is a rough fit, not a confirmed value.
# Biological target: Cruzipain (Trypanosoma cruzi) (UniProt P25779)
# Chain of UniProt P25779 (P25779 whole entry, looked up): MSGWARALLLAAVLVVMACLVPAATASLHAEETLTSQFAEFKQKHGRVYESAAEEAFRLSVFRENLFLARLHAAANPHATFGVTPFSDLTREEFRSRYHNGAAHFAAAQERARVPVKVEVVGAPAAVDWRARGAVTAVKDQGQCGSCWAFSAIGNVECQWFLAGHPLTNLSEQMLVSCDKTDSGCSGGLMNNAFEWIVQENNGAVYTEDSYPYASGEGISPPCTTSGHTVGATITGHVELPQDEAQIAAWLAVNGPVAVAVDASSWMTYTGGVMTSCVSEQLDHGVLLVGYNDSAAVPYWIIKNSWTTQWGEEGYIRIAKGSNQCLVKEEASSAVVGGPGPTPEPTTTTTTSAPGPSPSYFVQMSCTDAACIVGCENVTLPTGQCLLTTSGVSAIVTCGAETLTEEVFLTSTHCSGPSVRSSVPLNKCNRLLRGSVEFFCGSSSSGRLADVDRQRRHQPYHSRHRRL
# Experiment: qHTS Assay for Promiscuous and Specific Inhibitors of Cruzain (without detergent); also: nearly all actives have a fitted effect of over 40% in size;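 as to max response, negative = inhibition: plate controls were enzyme without inhibitor for no effect and buffer without enzyme for full effect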
# Conditions: purified cruzain, Z-FR-AMC fluorescence, no detergent
# In short: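 Purified cruzain at 1.5 nM, pre-incubated 15 min with compound at room temperature in 100 mM sodium acetate pH 5.5, 5 mM DTT, 0.00005% Triton X-100. Reaction started with 2 uM Z-FR-AMC; AMC fluorescence increase over 60 s gives rate.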
# Potency is read from the fitted curve at half-maximal effect; tags tell the direction and shape of the fitted curve.
Compound,"max response, negative = inhibition",Potency
COc1ccc(NC(=O)CSc2ncc(-c3ccc(Cl)cc3)[nH]2)cc1OC,inactive: 0.51%,–
CCOc1ccc(OCC)c(-c2c(=O)n(OCc3ccccc3C(=O)OC)c3ccccc3[n+]2[O-])c1,–,"inconclusive: 39.8 µM [activator, single point]"
Cc1cc(C)n2nc(SCC(=O)c3cc(C)n(-c4cc(C)on4)c3C)nc2n1,–,"inconclusive: 31.6 µM [activator, single point]"
CCN(CC)S(=O)(=O)c1ccc2c(c1)N(CC(=O)Nc1c(C)cccc1C)C(=O)CO2,inactive: -17.5%,–
CC(C)[C@H](NC(=O)OCc1ccccc1)C(=O)OCC(=O)Nc1c(F)cccc1F,–,"inconclusive: 25.1 µM [inhibitor, single point]"
Cc1ccccc1NC(=S)NCc1ccc2[nH]c3c(c2c1)CCCC3,–,"inconclusive: 39.8 µM [inhibitor, single point]"
Cc1ccc(S(=O)(=O)N2CCOCC2)cc1NC(=O)CSc1nc2ccccc2c(=O)n1Cc1ccccc1,–,"inconclusive: 15.8 µM [inhibitor, single point]"
O=C(NCc1ccccc1)c1cc(-c2cccc(Cl)c2)on1,–,"inconclusive: 31.6 µM [inhibitor, single point]"
O=C(Nc1ccc2c(c1)CCC2)c1cccc(S(=O)(=O)N2CCN(c3ccc(F)cc3)CC2)c1,–,active: 20 µM
COCC(=O)N1CCC2(CCCN(c3ccc(-c4ccccc4)cc3)C2)CC1,–,"inconclusive: 39.8 µM [activator, single point]"
CCn1cc[n+](C)c1P(c1ccccc1)c1ccccc1,–,"inconclusive: 31.6 µM [inhibitor, single point]"
COc1ccc(-c2nc3cnc(N(C)C)nc3n(C)c2=O)cc1,inactive: -6.6%,–
O=C1/C(=C/c2ccccc2)NC(=S)N1C(c1ccccc1)c1ccccc1,–,active: 20 µM
C#C[C@]1(O)CC[C@@H]2[C@H]3CCC4=CCCC[C@@H]4[C@@H]3CC[C@@]21C,–,"inconclusive: 15.8 µM [activator, single point]"
CCOc1ccc(/C=C/C(=O)Nc2ccc3[nH]c(=O)[nH]c3c2)cc1,–,"inconclusive: 31.6 µM [inhibitor, single point]"
Cc1cccc(Cn2c(SCc3ccc(C(=O)N4CCCCCC4)cc3)nc3ccncc32)c1,inactive: 2.34%,–
Brc1csc(CN2CCc3nc(Nc4ccccc4)ncc3C2)c1,–,"inconclusive: 25.1 µM [inhibitor, single point]"
O=C(CNC(=O)c1ccccc1Cl)OCc1cc(=O)n2ccsc2n1,–,active: 12.6 µM
CCOC(=O)C1CCN(C(=O)c2oc3ccc(S(=O)(=O)N4CCCCCC4)cc3c2C)CC1,–,"inconclusive: 25.1 µM [activator, single point]"
Cc1ccc(CCNC(=O)CCc2cn(Cc3ccccc3C)c3ccccc23)cc1,inactive: 3.13%,–
Cc1cc(C)cc(-n2cnc3cc(C(=O)NCCc4ccccc4)ccc32)c1,inactive: 9.65%,–
COc1ccccc1Nc1c2c(nc3ccc(NC(=O)/C=C/c4cccc(OC)c4OC)cc13)CCCC2,–,"inconclusive: 20 µM [inhibitor, single point]"
C=CCn1c(SCC(=O)Nc2sc3c(c2C#N)CCC3)nnc1C1COc2ccccc2O1 (configuration not stated),–,active: 31.6 µM

Compound,"max response, negative = inhibition",Potency
COc1cccc(C(=O)NCC(=O)OCC(=O)c2ccccc2)c1,–,"inconclusive: 25.1 µM [inhibitor, single point]"
CC(/C=N/N1CCN(c2ccccc2)CC1)=C\c1ccco1,–,"inconclusive: 39.8 µM [inhibitor, single point]"
CCNC(=O)Cn1cc(C#N)c2ccccc21,–,"inconclusive: 1 µM [activator, single point]"
CCc1ccc(-n2nnc(-c3nc(-c4ccccc4)no3)c2C)cc1,inactive: 11.5%,–
CCc1ccc2c(c1)c1nnc(NN)nc1n2CC,–,"inconclusive: 39.8 µM [inhibitor, single point]"
Cc1ccc(S(=O)(=O)N2CCC(Oc3ccc(-n4cnnn4)cc3)CC2)cc1,inactive: 8.75%,–
Cc1nn(C)c(C)c1CN(C)C(=O)CCCC(=O)O,inactive: -0.989%,–
CCOC(=O)c1c(NC(=O)CSc2c[nH]c3ccccc23)sc2c1CCCC2,–,active: 25.1 µM
Cc1ccc(NC(=O)c2ccc(N/N=C/c3cccc(O)c3)c([N+](=O)[O-])c2)cc1,–,active: 10 µM
O=C(NCc1ccc2c(c1)OCO2)c1ccc(N2CCCCCC2)c([N+](=O)[O-])c1,–,"inconclusive: 39.8 µM [inhibitor, single point]"
Cc1cc(C(=O)N/N=C/c2ccc(O)c([N+](=O)[O-])c2)c(C)n1-c1ccc(F)cc1,–,active: 10 µM
Cn1cc([N+](=O)[O-])c(C(=O)Nc2nc(-c3ccc(Cl)cc3)cs2)n1,–,"inconclusive: 39.8 µM [inhibitor, single point]"
COc1ccccc1-c1csc(NC(=O)c2cc(-c3cccs3)nc3ccccc23)n1,–,active: 3.98 µM
Cc1nc(-c2ccc(C)c(N3CCN(C(=O)Nc4ccccc4C(F)(F)F)CC3)c2)no1,–,"inconclusive: 39.8 µM [activator, single point]"
CC1(C)Cc2c(c(N3CCCC3)nc3sc4c(N5CCN(CCO)CC5)ncnc4c23)CO1,–,"inconclusive: 31.6 µM [activator, single point]"
c1ccc(COc2nsnc2N2CCOCC2)cc1,inactive: -3.44%,–
CC(=O)c1ccc(NC(=O)C2CCC(CNS(=O)(=O)c3ccc(Br)s3)CC2)cc1 (configuration not stated),inactive: 0.946%,–
O=C(C1=C(O)C(=O)N(c2ncccn2)C1c1ccc(Cl)c(Cl)c1)c1ccco1 (configuration not stated),–,"inconclusive: 39.8 µM [activator, single point]"
COc1cc([N+](=O)[O-])cc(/C=N/NC(=O)C(C)Nc2cccc3ccccc23)c1O (configuration not stated),–,"inconclusive: 39.8 µM [inhibitor, single point]"
O=C(NCCCc1ccccc1)c1nn(-c2ccccc2F)nc1CO,inactive: 4.97%,–
COc1ccc(OC)c(/C=N/NC(=O)CN2CCSCC2)c1,–,"inconclusive: 39.8 µM [inhibitor, single point]"
Cc1ccc(C(=O)NNC(=O)CSc2nnc3c(n2)[nH]c2ccc(F)cc23)cc1,–,"inconclusive: 31.6 µM [inhibitor, single point]"
c1ccc2c(c1)Cc1cc3cc4c(cc3nc1-2)OCO4,inactive: -0.722%,–

Compound,"max response, negative = inhibition",Potency
COC(=O)[C@@]1(Cc2ccc(F)cc2)[C@H]2c3cc(C(=O)N(C)C)n(CCc4c[nH]c5ccc(OC)cc45)c3C[C@H]2CN1C(=O)c1ccccc1,–,"inconclusive: 39.8 µM [activator, single point]"
c1ccc(N/N=C(\Cc2nc3ccccc3[nH]2)c2ccccc2)cc1,inactive: -27.5%,–
CCCC(C)NC(=O)c1ccc(OCc2ccc(Cl)cc2)c(OC)c1 (configuration not stated),–,"inconclusive: 15.8 µM [inhibitor, single point]"
CC(C)CCC(O)(CCC(C)C)C(=O)NNc1ccccc1,–,"inconclusive: 25.1 µM [inhibitor, single point]"
CCCCNC(=O)C1CCN(S(=O)(=O)c2cc(Br)cc3c2N(C(=O)CC)CC3)CC1,–,"inconclusive: 39.8 µM [activator, single point]"
CCOc1ccccc1NC(=O)C(C)Sc1cc(-c2ccccc2)nc(C)n1 (configuration not stated),inactive: -6.38%,–
CC1CCCCC1NC(=O)C1CCN(S(=O)(=O)N2CCC3(CC2)OCCO3)CC1 (configuration not stated),inactive: 2.63%,–
CCn1c(CCNC(=O)c2cccs2)nnc1SCC(=O)Nc1nc(-c2ccccc2)cs1,–,"inconclusive: 39.8 µM [activator, single point]"
CC1=C(C(=O)Nc2ccccc2)C(c2ccccc2)n2nc(-c3ccco3)nc2N1 (configuration not stated),inactive: 24.3%,–
Cc1ccccc1NC(=S)NC(NC(=O)COc1ccccc1)C(Cl)(Cl)Cl (configuration not stated),–,"inconclusive: 39.8 µM [inhibitor, single point]"
CC(=O)Nc1nnc(SCc2cc(=O)c3cc(C)ccc3[nH]2)s1,inactive: -1.64%,–
CCCCCOCC1CC(C/C(C)=N/Nc2nc(-c3ccccc3)cs2)C(=O)O1 (configuration not stated),–,"inconclusive: 31.6 µM [inhibitor, single point]"
O=C(COc1ccc(/C=N/NC(=O)c2cc3ccccc3o2)cc1Cl)Nc1ccccc1,–,active: 20 µM
Oc1c(C(c2ccccc2)N2CCN(Cc3ccccc3)CC2)sc2nc(-c3ccco3)nn12 (configuration not stated),inactive: -7.12%,–
COc1ccccc1CNC(=O)C(=O)NCC(c1cccs1)S(=O)(=O)c1ccc(F)cc1 (configuration not stated),inactive: 0.084%,–
Cc1cc(C)cc(C(=O)N(C)[C@H](Cc2ccc(-c3ccccc3)cc2)C(=O)N[C@@H](Cc2c[nH]c3ccccc23)C(=O)O)c1,–,"inconclusive: 15.8 µM [activator, single point]"
O=C(N=C1c2ccccc2CN1c1ccccc1)c1cccc([N+](=O)[O-])c1,–,"inconclusive: 31.6 µM [inhibitor, single point]"
COc1cc(C(=O)Nc2ccc3nn(-c4ccc(F)cc4)nc3c2)cc(OC)c1OC,–,"inconclusive: 31.6 µM [activator, single point]"
CCOC(=O)c1noc2nc(C)n(CC(=O)Nc3cc(Cl)ccc3OC)c(=O)c12,inactive: -2.83%,–
CCCCn1c(=O)n(-c2ccc(Br)cc2F)c(=O)c2c3c(sc21)CN(C(C)=O)CC3,–,"inconclusive: 39.8 µM [activator, single point]"
Cn1c(Cl)c(/C=N/OC(=O)c2ccc(Cl)cc2)c2ccccc21,–,"inconclusive: 39.8 µM [inhibitor, single point]"
